{"source": "patent US7074789B2", "about": "“Kinase inhibitors” (Amgen Inc., priority 1999, dated 2006)", "target": "T1, EGFR (Homo sapiens, UniProt P00533)", "T1 construct": "Kinases are expressed as either kinase domains or full length constructs; made in house", "T1 sequence (P00533 25-1210, species assumed)": "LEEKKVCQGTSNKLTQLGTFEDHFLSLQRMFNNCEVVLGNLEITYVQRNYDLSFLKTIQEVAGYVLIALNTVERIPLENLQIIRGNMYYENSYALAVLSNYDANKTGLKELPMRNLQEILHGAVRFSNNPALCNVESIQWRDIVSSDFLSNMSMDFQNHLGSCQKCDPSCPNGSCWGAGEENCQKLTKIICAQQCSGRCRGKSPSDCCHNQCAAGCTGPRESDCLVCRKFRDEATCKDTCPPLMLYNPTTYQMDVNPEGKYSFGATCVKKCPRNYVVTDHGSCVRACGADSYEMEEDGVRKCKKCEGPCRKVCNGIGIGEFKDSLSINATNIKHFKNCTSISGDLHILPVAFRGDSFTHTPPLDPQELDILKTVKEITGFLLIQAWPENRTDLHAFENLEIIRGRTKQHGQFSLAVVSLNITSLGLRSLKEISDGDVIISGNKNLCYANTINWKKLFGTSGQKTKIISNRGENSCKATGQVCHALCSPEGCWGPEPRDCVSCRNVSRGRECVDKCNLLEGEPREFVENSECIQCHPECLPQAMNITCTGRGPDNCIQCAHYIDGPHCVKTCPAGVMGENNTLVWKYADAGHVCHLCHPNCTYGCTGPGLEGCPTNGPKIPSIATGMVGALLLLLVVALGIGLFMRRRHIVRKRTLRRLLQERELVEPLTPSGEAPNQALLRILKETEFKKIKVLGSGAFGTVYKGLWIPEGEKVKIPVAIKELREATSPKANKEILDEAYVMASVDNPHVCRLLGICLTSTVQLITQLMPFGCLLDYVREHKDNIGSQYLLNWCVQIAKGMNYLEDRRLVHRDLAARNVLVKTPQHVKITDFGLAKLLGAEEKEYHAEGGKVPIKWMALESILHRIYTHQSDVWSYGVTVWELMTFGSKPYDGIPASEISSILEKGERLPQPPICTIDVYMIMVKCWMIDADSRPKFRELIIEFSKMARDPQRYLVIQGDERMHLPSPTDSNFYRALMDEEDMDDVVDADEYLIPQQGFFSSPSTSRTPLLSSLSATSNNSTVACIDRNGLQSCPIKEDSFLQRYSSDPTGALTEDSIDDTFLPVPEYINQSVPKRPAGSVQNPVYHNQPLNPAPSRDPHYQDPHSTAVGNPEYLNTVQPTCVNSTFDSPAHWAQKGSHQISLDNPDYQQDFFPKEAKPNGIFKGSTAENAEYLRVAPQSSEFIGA", "assay": "Kinase inhibition assay (33P transfer), EGFR", "format": "biochemical", "conditions": "Table 2, kinase inhibition class; read-out: EGFR-1", "description": "The inhibitor compounds described herein are screened in the following manner. Kinases suitable for use in the following protocol to determine kinase activity of the compounds described herein include, -but are not limited to: Lck, Lyn, Src, Fyn, Syk, Zap-70, Itk, Tec, Btk, EGFR, ErbB2, Kdr, Flt-1, Flt-3, Tek, c-Met, InsR, and AKT.\nKinases are expressed as either kinase domains or full length constructs fused to glutathione S-transferase (GST) or polyHistidine tagged fusion proteins in either E. colior Baculovirus-High Five expression systems. They are purified to near homogeneity by affinity chromatography essentially as previously described (Lehr et al., 1996; Gish et al., 1995). In some instances, kinases are co-expressed or mixed with purified or partially purified regulatory polypeptides prior to measurement of activity.\nKinase activity and inhibition are measured essentially by established protocols (Braunwalder et al., 1996). Briefly, The transfer of ^33PO4 from ATP to the synthetic substrates poly(Glu, Tyr) 4:1 or poly(Arg, Ser) 3:1 attached to the bioactive surface of microtiter plates serves as the basis to evaluate enzyme activity. After an incubation period, the amount of phosphate transferred is measured by first washing the plate with 0.5% phosphoric acid, adding liquid scintillant, and then counting in a liquid scintillation detector. […]", "note": "The source holds more than one record for some entries. This list holds those alone. There may be further records. The values listed for one entry seem to repeat one measurement on other runs, samples or individuals."}
{"smiles": "COc1cc(Nc2ncnc(-n3c(NC4c5ccccc5CC4O)nc4ccccc43)n2)cc(OC)c1OC", "note": "(stereo not shown) [Compound 579]", "values": [{"measurement": "IC50", "value": "> 8.56 µM and < 761 nM [lines of one column]"}]}
